Results as given in ChEMBL document CHEMBL4888484, “Replenishing the malaria drug discovery pipeline: Screening and hit evaluation of the MMV Hit Generation Library 1 (HGL1) against asexual blood stage Plasmodium falciparum ,using a nano luciferase reporter read-out” (2022).
The whole screen tested about 150,000 compounds, of which about 540 (0.36%) showed an effect of 50% or more. Some of the results follow.

The compounds below were run on Plasmodium falciparum (assay: Primary screen in NF54 nanoGlo assay, in single point, at 2uM, 72h; a lower Z score goes with more inhibition). Conditions: timepoint 72 hour.
Format: functional, Erythrocyte

Compound	% Inhibition	Z score
NC(=O)c1cc(CCOCc2ccccc2)ccc1F	0%	0.04
Fc1ccccc1[C@@H](NCc1cc[nH]n1)C1CCCC1	-9%	0.81
Cc1cc(S(=O)(=O)NC(=O)C2(C)COC2)c(C)o1	6%	-0.73
COc1ccc(CN2C(=O)COC[C@H]2C(=O)N2CCN(C)CC2)c(OC)c1	0%	-0.08
Cn1ccc([C@@H]2CCCCN2C(=O)c2cc3c(s2)CCCC3)n1	-7%	1.25
O=C(c1nccc2ccccc12)N1CCC[C@H](c2nnc3n2CCN(C2CCCC2)C3)C1	-18%	3.55
CCN=C(NCCc1ccccn1)N(C)Cc1cccs1	-7%	0.7
Cc1ncnc(N2CCN(C(=O)c3cc(CC(C)C)[nH]c(=O)n3)CC2)c1C	-11%	2.15
C/C(=C\c1ccccc1)C(=O)N1CC[C@@H](c2ccccc2)S(=O)(=O)CC1	-1%	0.14
CC(C)c1noc(NC2C3CCOC3C2(C)C)n1 (stereo not drawn)	-6%	0.8
c1cc2c(c(OCc3nnc4n3CCCCC4)c1)OCCO2	-22%	2.03
O=C(CCCN1CCCC1=O)NCc1cccnc1N1CCCCCCC1	-9%	1.24
Cc1ccc(NC(=O)COC(=O)C2CC(O)CN2C(=O)Cc2ccccc2F)cc1 (stereo not drawn)	-3%	0.38
CCN1CC(=O)N[C@H]2CN(C(=O)c3cc(C)on3)CC[C@@H]2OCc2cccc(c2)Oc2cc(OC(C)C)cc(c2)C1=O	13%	-1.77
O=C(NCCc1ccccc1)Nc1ccccc1-c1cc2ccccc2[nH]1	3%	-0.51
COCCN(C[C@@H]1CC=CCC1)C(=O)c1ccncc1	-14%	1.57
Cc1cnc(C2CC2)n1CC1CCN(C(=O)COCc2ccccc2)CC1	-11%	1.5
O=C(NCC1CCN(C(=O)c2cnc[nH]2)CC1)C1CCCC1	-12%	2.21
O=C(NC[C@H](OCCO)c1cccs1)c1cccc(Cl)c1	-15%	1.71
O=C(NCC(c1ccco1)c1ccco1)c1ccoc1	14%	-1.81
CCCc1nc2ncnn2c(O)c1NC(=O)Nc1ccccc1Br	2%	-0.44
Cc1c(C(=O)N2CCNC(=O)[C@@H]2c2ccc(F)cc2)n(C)c2ccc(F)cc12	-11%	1.2
CCc1nc(-c2ccccc2)nc(N2CCN(C(=O)COC)CC2)c1Cc1cccc(C)c1	-14%	1.94
Cc1cc(F)ccc1-n1cc(C(=O)N(CCc2ccccc2)[C@H]2CCOC2)nn1	1%	-0.13
CC1(CNC(=O)C2CC3CCCCC3N2c2ncccn2)CCCO1 (stereo not drawn)	-5%	0.43
Cc1cc(NS(=O)(=O)CCc2cccc(F)c2)cnc1C	-6%	1.06
Cc1ccc(Oc2c(CN(CC(C)C)C[C@@H](O)Cc3ccccc3)c(C)nn2-c2ccccc2)cc1	-3%	0.51

Compound	% Inhibition	Z score
O=C(NCc1nccc(N2CCCCC2)n1)c1cccc(F)c1	-8%	1.28
c1ncc(CNC23CCC(CC2)C3)cn1	1%	-0.1
CCc1nc(C)c(C(=O)N(C)Cc2cc(C3CC3)[nH]n2)s1	-7%	1.04
Cc1nsc(N2CC3(CCOCC3)[C@@H]3CCC[C@@H]32)n1	-14%	1.7
CC(=O)NC1CCC(N(C)C(=O)c2nn(C(C)(C)C)cc2Br)CC1 (stereo not drawn)	-4%	0.55
CCOC(=O)c1noc2nc(C)nc(N3CCN(c4ncccn4)CC3)c12	-10%	1.93
Clc1ccccc1OCc1noc2c1COCC2	-12%	1.65
COCC(O)CN(C)C(=O)C(C)c1ccsc1 (stereo not drawn)	2%	-0.22
COc1c(C)cc(N)cc1Br	3%	-0.53
CCN1CCCn2nc(C3CCN(C(=O)c4cccc(C(F)(F)F)c4)CC3)cc2C1=O	-1%	0.16
Cc1ccc(NC(=O)CCS(=O)(=O)c2cc(-c3cc(C)no3)ccc2C)c(Br)c1	-13%	1.75
CC(C)(C)n1ncnc1NC(=O)CCN1CCCS1(=O)=O	10%	-1.69
CCn1cncc1Cn1ccnc1-c1ccc(O)c(OC)c1	-8%	1.33
Cc1noc(C)c1S(=O)(=O)N(C[C@H]1CCOC1)C1CC1	-7%	0.59
Cc1cc(=O)c(C(=O)N[C@@H](C)c2nc(C)sc2C)c[nH]1	0%	0.01
CN(Cc1cnn(-c2ccccc2)c1)c1ccncc1Cl	2%	-0.33
Cc1ccc(NC(=O)c2ccc3c(c2)CCCN3S(=O)(=O)c2ccc(Cl)cc2)c(C)c1	-7%	1.29
COc1ccc(S(=O)(=O)Nc2nc(C)cs2)cn1	6%	-0.74
COCC(C)(C)NC(=O)[C@H]1CCCN(C2CCN(C3Cc4ccccc4C3)CC2)C1	0%	-0.08
O=C(c1cnns1)N1CCC[C@H]1c1ccc2c(c1)OCCO2	-5%	0.66
Cc1ccc(-c2cn(CC(=O)NCc3ccc(F)cc3)nc2N(C)C)cc1	-14%	1.6
O=C([C@H]1C[C@@H]1c1ccccc1Cl)N1CCCn2nnnc21	-4%	0.59
COC1(C(F)(F)F)CCN(c2nnnn2C2CC3CCC2C3)CC1 (stereo not drawn)	-12%	1.58
CN1C(=O)CC[C@@H]1CN1CCN(c2ccccn2)CC1	-21%	2.65
Cc1ccc(C)c(-n2nc(C3CC3)nc2-c2ccc(=O)[nH]n2)c1	-7%	0.96
COC(=O)c1ccccc1NC(=O)[C@H]1C[C@H]2CCCN2[C@@]12C(=O)Nc1ccccc12	-10%	0.94
CCC(Cn1cncn1)NC1CCN(c2cccc(OC(F)(F)F)c2)C1 (stereo not drawn)	-4%	0.55
